In the supplement of paper PMC9174493 one finds ISRE reporter data, which are given here for 33 compounds.

Molecules are shown by their SMILES. The list shows a part of the results. Single values of this set are uncertain. Values with irradiation are relative to irradiated vehicle.

For the test, the system named is A549-Dual. The test is described as follows: ISRE reporter (Lucia luciferase) activity, viability-corrected, relative to vehicle (fold change vs vehicle); higher = more activation of STING-IRF / NF-kB immune response reporter. Conditions: 10 µM; irradiation: none.
For `COc1cnc(NS(=O)(=O)c2ccc(N)cc2)nc1` [Sulfameter], the ISRE reporter amounted to 0.738.
The compound `NS(=O)(=O)c1cc(C2(O)NC(=O)c3ccccc32)ccc1Cl` (stereo not drawn) [Chlorthalidone] showed an ISRE reporter of 1.01.
Regarding `C[N+](C)(CCOc1ccccc1)Cc1ccccc1.O=C([O-])c1cc2ccccc2cc1O` [Bephenium Hydroxynaphthoate], the ISRE reporter worked out at 0.958.
For `Br.CN1CCCC1Cc1c[nH]c2ccc(CCS(=O)(=O)c3ccccc3)cc12` (stereo not drawn) [Eletriptan HBr], the ISRE reporter stood at 0.97.
To `COC(=O)NC(C(=O)NC(Cc1ccccc1)C(O)CN(Cc1ccc(-c2ccccn2)cc1)NC(=O)C(NC(=O)OC)C(C)(C)C)C(C)(C)C` (stereo not drawn) [Atazanavir] belongs 0.815.
For the compound `O=C(O)CCn1c2c(c3ccccc31)CC(NS(=O)(=O)c1ccc(F)cc1)CC2` (stereo not drawn) [Ramatroban], the ISRE reporter was found to be 0.443.
As to `O=C(NCc1c(F)cc(F)cc1F)c1cn2c(c(O)c1=O)C(=O)N1C3CCC(C3)OC1C2` (stereo not drawn) [Bictegravir], the ISRE reporter stood at 2.95.
Next, `CC1(C)CC(=O)CC(C)(C)N1` [TriacetonaMine]: 0.735.
Regarding `CCN(CC)C(=O)Nc1ccc(OCC(O)CNC(C)(C)C)c(C(C)=O)c1.Cl` (stereo not drawn) [Celiprolol hydrochloride], the ISRE reporter stood at 0.807.
As for `O=C(NCC1CN(c2ccc(N3CCOCC3=O)cc2)C(=O)O1)c1ccc(Cl)s1` (stereo not drawn) [Rivaroxaban], the ISRE reporter worked out at 0.795.
As for `CC1CC(C(=O)O)C2CCC3(C)C(=CCC4C5(C)CCC(O)C(C)(C)C5CCC43C)C2C1C` (stereo not drawn) [Ursolic Acid], the ISRE reporter was found to be 2.05.
To `COCC(=O)Nc1cc(Sc2ccccc2)ccc1N=C(NC(=O)OC)NC(=O)OC` [Febantel] belongs 0.778; to `O=C(CCCN1CCN(c2ccccn2)CC1)c1ccc(F)cc1` [Azaperone], 0.72; to `CCCC1CC(C(=O)NC(C(C)O)C2OC(SC)C(O)C(O)C2O)N(C)C1.Cl.O` (stereo not drawn) [Lincomycin Hydrochloride Monohydrate], 0.569.
The compound `CC(OC(=O)OC1CCCCC1)OC(=O)C1=C(CSc2nnnn2CCN(C)C)CSC2C(NC(=O)Cc3csc(N)n3)C(=O)N12.Cl.Cl` (stereo not drawn) [Cefotiam Hexetil Hydrochloride] displayed an ISRE reporter of 1.46.
Compound `OC(Cn1cncn1)(Cn1cncn1)c1ccc(F)cc1F` [Fluconazole] had an ISRE reporter of 0.703.
As for `COc1ccccc1OCC(O)CN1CCN(CC(=O)Nc2c(C)cccc2C)CC1` (stereo not drawn) [Ranolazine], the ISRE reporter came to 0.474.
On to `COc1ccc(CCNCC(O)COc2cccc(C)c2)cc1OC.Cl` (stereo not drawn) [Bevantolol hydrochloride], for which the ISRE reporter turned out to be 0.808.
Compound `NC(C(=O)NC1C(=O)N2C(C(=O)O)=C(Cl)CSC12)c1ccccc1.O` (stereo not drawn) [Cefaclor] had an ISRE reporter of 0.721.
Regarding `CCCN1CCCCC1C(=O)Nc1c(C)cccc1C.CS(=O)(=O)O` (stereo not drawn) [Ropivacaine Mesilate], the ISRE reporter amounted to 0.671.
The compound `C=CCNC(N)=S` [Allylthiourea] came in with an ISRE reporter of 0.822.
To `Brc1c(NC2=NCCN2)ccc2nccnc12` [Brimonidine] belongs 0.26.
`Nc1ccc(S(=O)(=O)c2ccc(N)cc2)cc1` [Dapson] gave an ISRE reporter of 0.905.
`OCC1OC(OC2C(CO)OC(OC3C(CO)OC(O)C(O)C3O)C(O)C2O)C(O)C(O)C1O` (stereo not drawn) [Maltotriose] came in with an ISRE reporter of 0.441.
As for `CCN(Cc1ccncc1)C(=O)C(CO)c1ccccc1` (stereo not drawn) [Tropicamide], the ISRE reporter was 0.658.
For the compound `COc1cc2ccc(=O)oc2cc1O` [Scopoletin], the ISRE reporter was 0.171.
In turn, `COC1C(OC(N)=O)C(O)C(Oc2ccc3c(O)c(NC(=O)c4ccc([O-])c(CC=C(C)C)c4)c(=O)oc3c2C)OC1(C)C.[Na+]` (stereo not drawn) [Novobiocin Sodium] returned an ISRE reporter of 0.481.
Regarding `CN1CCCC(n2nc(Cc3ccc(Cl)cc3)c3ccccc3c2=O)CC1.Cl` (stereo not drawn) [Azelastine HCl], the ISRE reporter came out at 1.56.
Consider `NS(=O)(=O)c1ccccc1` [Benzenesulfonamide], for which the ISRE reporter was 0.773.
For the compound `Cl.Clc1ccc2nsnc2c1NC1=NCCN1` [Tizanidine HCl], the ISRE reporter turned out to be 0.884.
Next, `CO/N=C(/C(=O)NC1C(=O)N2C(C(=O)O)=C(CSC(=O)c3ccco3)CSC12)c1csc(N)n1.Cl` (stereo not drawn) [Ceftiofur HCl]: 0.864; `CC(C[N+](C)(C)C)OC(N)=O.[Cl-]` (stereo not drawn) [Bethanechol chloride]: 0.766.
In turn, `Nc1ccc(C(=O)O)c(O)c1` [4-Aminosalicylic acid] came in with an ISRE reporter of 0.718.
